# Reference: the supplement of paper PMC8728848
# The list shows a part of the results.
# Assays:
# Test in all cases: glycan array binding signal (z-score within array); higher = stronger binding
# Details in all cases: glycan notation: IUPAC condensed, linker removed
# [1] = target: Gal(b1-4)GlcNAc(b1-2)Man(a1-6)[GlcNAc(b1-2)Man(a1-3)]Man(b1-4)GlcNAc(b1-4)GlcNAc
# Outline: (§1)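 Glycan array data came from 3228 arrays in the Consortium for Functional Glycomics database, and only arrays with an available protein sequence were kept. Glycan names were put into IUPAC-condensed notation, and columns mapping to the same glycan were averaged. The binding signal is a within-array Z-score, averaged across arrays of one protein sequence run at different concentrations or buffers and across linkers. A negative Z-score can be read as non-binding.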
# [2] = target: Gal(b1-4)GlcNAc(b1-2)Man(a1-6)[Man(a1-3)]Man(b1-4)GlcNAc(b1-4)GlcNAc
# Outline: as §1
# [3] = target: Gal(b1-4)GlcNAc(b1-2)[Gal(b1-4)GlcNAc(b1-4)]Man(a1-3)[Gal(b1-4)GlcNAc(b1-2)Man(a1-6)]Man(b1-4)GlcNAc(b1-4)GlcNAc
# Outline: as §1
# [4] = target: Gal(b1-4)GlcNAc(b1-2)[Gal(b1-4)GlcNAc(b1-4)]Man(a1-3)[Gal(b1-4)GlcNAc(b1-2)[Gal(b1-4)GlcNAc(b1-6)]Man(a1-6)]Man(b1-4)GlcNAc(b1-4)GlcNAc
# Outline: as §1
# [5] = target: Gal(b1-4)GlcNAc(b1-2)[Gal(b1-4)GlcNAc(b1-4)]Man(a1-3)[GlcNAc(b1-4)][Gal(b1-4)GlcNAc(b1-2)Man(a1-6)]Man(b1-4)GlcNAc(b1-4)GlcNAc
# Outline: as §1
# [6] = target: Gal(b1-4)GlcNAc(b1-2)[Gal(b1-4)GlcNAc(b1-4)]Man(a1-3)[GlcNAc(b1-4)][Gal(b1-4)GlcNAc(b1-2)[Gal(b1-4)GlcNAc(b1-6)]Man(a1-6)]Man(b1-4)GlcNAc(b1-4)GlcNAc
# Outline: as §1
# [7] = target: Gal(b1-4)GlcNAc(b1-2)[Gal(b1-4)GlcNAc(b1-6)]Man(a1-6)[Gal(b1-4)GlcNAc(b1-2)Man(a1-3)]Man(b1-4)GlcNAc(b1-4)GlcNAc
# Outline: as §1
# [8] = target: Gal(b1-4)GlcNAc(b1-2)[Gal(b1-4)GlcNAc(b1-6)]Man(a1-6)[Gal(b1-4)GlcNAc(b1-2)Man(a1-3)]Man(b1-4)GlcNAc(b1-4)[Fuc(a1-6)]GlcNAc
# Outline: as §1
# [9] = target: Gal(b1-4)GlcNAc(b1-2)[Gal(b1-4)GlcNAc(b1-6)]Man(a1-6)[GlcNAc(b1-4)][Gal(b1-4)GlcNAc(b1-2)Man(a1-3)]Man(b1-4)GlcNAc(b1-4)GlcNAc
# Outline: as §1
# [10] = target: Gal(b1-4)GlcNAc(b1-2)[Gal(b1-4)GlcNAc(b1-6)]Man(a1-6)[GlcNAc(b1-4)][Gal(b1-4)GlcNAc(b1-2)[Gal(b1-4)GlcNAc(b1-4)]Man(a1-3)]Man(b1-4)GlcNAc(b1-4)[Fuc(a1-6)]GlcNAc
# Outline: as §1
# [11] = target: Gal(b1-4)GlcNAc(b1-3)Gal(b1-3)GalNAc
# Outline: as §1
# [12] = target: Gal(b1-4)GlcNAc(b1-3)Gal(b1-3)GlcNAc
# Outline: as §1
# [13] = target: Gal(b1-4)GlcNAc(b1-3)Gal(b1-4)Glc
# Outline: as §1
# [14] = target: Gal(b1-4)GlcNAc(b1-3)Gal(b1-4)GlcNAc
# Outline: as §1
# [15] = target: Gal(b1-4)GlcNAc(b1-3)Gal(b1-4)GlcNAc(b1-2)Man(a1-3)[Gal(b1-4)GlcNAc(b1-3)Gal(b1-4)GlcNAc(b1-2)Man(a1-6)]Man(b1-4)GlcNAc(b1-4)GlcNAc
# Outline: as §1
# [16] = target: Gal(b1-4)GlcNAc(b1-3)Gal(b1-4)GlcNAc(b1-2)Man(a1-3)[Gal(b1-4)GlcNAc(b1-3)Gal(b1-4)GlcNAc(b1-2)Man(a1-6)]Man(b1-4)GlcNAc(b1-4)[Fuc(a1-6)]GlcNAc
# Outline: as §1
# [17] = target: Gal(b1-4)GlcNAc(b1-3)Gal(b1-4)GlcNAc(b1-2)[Gal(b1-4)GlcNAc(b1-3)Gal(b1-4)GlcNAc(b1-6)]Man(a1-6)[Gal(b1-4)GlcNAc(b1-3)Gal(b1-4)GlcNAc(b1-2)Man(a1-3)]Man(b1-4)GlcNAc(b1-4)GlcNAc
# Outline: as §1
# [18] = target: Gal(b1-4)GlcNAc(b1-3)Gal(b1-4)GlcNAc(b1-2)[Gal(b1-4)GlcNAc(b1-3)Gal(b1-4)GlcNAc(b1-6)]Man(a1-6)[Gal(b1-4)GlcNAc(b1-3)Gal(b1-4)GlcNAc(b1-2)Man(a1-3)]Man(b1-4)GlcNAc(b1-4)[Fuc(a1-6)]GlcNAc
# Outline: as §1
# [19] = target: Gal(b1-4)GlcNAc(b1-3)Gal(b1-4)GlcNAc(b1-3)Gal(b1-4)GlcNAc
# Outline: as §1
# [20] = target: Gal(b1-4)GlcNAc(b1-3)Gal(b1-4)GlcNAc(b1-3)Gal(b1-4)GlcNAc(b1-2)Man(a1-3)[Gal(b1-4)GlcNAc(b1-3)Gal(b1-4)GlcNAc(b1-3)Gal(b1-4)GlcNAc(b1-2)Man(a1-6)]Man(b1-4)GlcNAc(b1-4)GlcNAc
# Outline: as §1
# [21] = target: Gal(b1-4)GlcNAc(b1-3)Gal(b1-4)GlcNAc(b1-3)Gal(b1-4)GlcNAc(b1-2)Man(a1-3)[Gal(b1-4)GlcNAc(b1-3)Gal(b1-4)GlcNAc(b1-3)Gal(b1-4)GlcNAc(b1-2)Man(a1-6)]Man(b1-4)GlcNAc(b1-4)[Fuc(a1-6)]GlcNAc
# Outline: as §1
# [22] = target: Gal(b1-4)GlcNAc(b1-3)Gal(b1-4)GlcNAc(b1-3)Gal(b1-4)GlcNAc(b1-2)[Gal(b1-4)GlcNAc(b1-3)Gal(b1-4)GlcNAc(b1-3)Gal(b1-4)GlcNAc(b1-6)]Man(a1-6)[Gal(b1-4)GlcNAc(b1-3)Gal(b1-4)GlcNAc(b1-3)Gal(b1-4)GlcNAc(b1-2)Man(a1-3)]Man(b1-4)GlcNAc(b1-4)[Fuc(a1-6)]GlcNAc
# Outline: as §1
# [23] = target: Gal(b1-4)GlcNAc(b1-3)Gal(b1-4)GlcNAc(b1-3)Gal(b1-4)GlcNAc(b1-3)Gal(b1-4)GlcNAc(b1-2)Man(a1-3)[Gal(b1-4)GlcNAc(b1-3)Gal(b1-4)GlcNAc(b1-3)Gal(b1-4)GlcNAc(b1-3)Gal(b1-4)GlcNAc(b1-2)Man(a1-6)]Man(b1-4)GlcNAc(b1-4)GlcNAc
# Outline: as §1
# [24] = target: Gal(b1-4)GlcNAc(b1-3)Gal(b1-4)GlcNAc(b1-3)Gal(b1-4)GlcNAc(b1-3)Gal(b1-4)GlcNAc(b1-2)Man(a1-3)[Gal(b1-4)GlcNAc(b1-3)Gal(b1-4)GlcNAc(b1-3)Gal(b1-4)GlcNAc(b1-3)Gal(b1-4)GlcNAc(b1-2)Man(a1-6)]Man(b1-4)GlcNAc(b1-4)[Fuc(a1-6)]GlcNAc
# Outline: as §1
# [25] = target: Gal(b1-4)GlcNAc(b1-3)Gal(b1-4)GlcNAc(b1-3)Gal(b1-4)GlcNAc(b1-3)Gal(b1-4)GlcNAc(b1-2)[Gal(b1-4)GlcNAc(b1-3)Gal(b1-4)GlcNAc(b1-3)Gal(b1-4)GlcNAc(b1-3)Gal(b1-4)GlcNAc(b1-6)]Man(a1-6)[Gal(b1-4)GlcNAc(b1-3)Gal(b1-4)GlcNAc(b1-3)Gal(b1-4)GlcNAc(b1-3)Gal(b1-4)GlcNAc(b1-2)Man(a1-3)]Man(b1-4)GlcNAc(b1-4)[Fuc(a1-6)]GlcNAc
# Outline: as §1
# [26] = target: Gal(b1-4)GlcNAc(b1-3)Gal(b1-4)GlcNAc(b1-3)Gal(b1-4)GlcNAc(b1-3)Gal(b1-4)GlcNAc(b1-3)Gal(b1-4)GlcNAc(b1-2)Man(a1-3)[Gal(b1-4)GlcNAc(b1-3)Gal(b1-4)GlcNAc(b1-3)Gal(b1-4)GlcNAc(b1-3)Gal(b1-4)GlcNAc(b1-3)Gal(b1-4)GlcNAc(b1-2)Man(a1-6)]Man(b1-4)GlcNAc(b1-4)GlcNAc
# Outline: as §1
# [27] = target: Gal(b1-4)GlcNAc(b1-3)Gal(b1-4)GlcNAc(b1-3)Gal(b1-4)GlcNAc(b1-3)Gal(b1-4)GlcNAc(b1-3)Gal(b1-4)GlcNAc(b1-2)Man(a1-3)[Gal(b1-4)GlcNAc(b1-3)Gal(b1-4)GlcNAc(b1-3)Gal(b1-4)GlcNAc(b1-3)Gal(b1-4)GlcNAc(b1-3)Gal(b1-4)GlcNAc(b1-2)Man(a1-6)]Man(b1-4)GlcNAc(b1-4)[Fuc(a1-6)]GlcNAc
# Outline: as §1
# [28] = target: Gal(b1-4)GlcNAc(b1-3)Gal(b1-4)GlcNAc(b1-3)Gal(b1-4)GlcNAc(b1-3)Gal(b1-4)GlcNAc(b1-3)Gal(b1-4)GlcNAc(b1-2)[Gal(b1-4)GlcNAc(b1-3)Gal(b1-4)GlcNAc(b1-3)Gal(b1-4)GlcNAc(b1-3)Gal(b1-4)GlcNAc(b1-3)Gal(b1-4)GlcNAc(b1-6)]Man(a1-6)[Gal(b1-4)GlcNAc(b1-3)Gal(b1-4)GlcNAc(b1-3)Gal(b1-4)GlcNAc(b1-3)Gal(b1-4)GlcNAc(b1-3)Gal(b1-4)GlcNAc(b1-2)Man(a1-3)]Man(b1-4)GlcNAc(b1-4)[Fuc(a1-6)]GlcNAc
# Outline: as §1
# [29] = target: Gal(b1-4)GlcNAc(b1-3)Gal(b1-4)GlcNAc(b1-3)Gal(b1-4)GlcNAc(b1-3)Gal(b1-4)GlcNAc(b1-3)Gal(b1-4)GlcNAc(b1-3)Gal(b1-4)GlcNAc(b1-2)Man(a1-3)[Gal(b1-4)GlcNAc(b1-3)Gal(b1-4)GlcNAc(b1-3)Gal(b1-4)GlcNAc(b1-3)Gal(b1-4)GlcNAc(b1-3)Gal(b1-4)GlcNAc(b1-3)Gal(b1-4)GlcNAc(b1-2)Man(a1-6)]Man(b1-4)GlcNAc(b1-4)GlcNAc
# Outline: as §1
# [30] = target: Gal(b1-4)GlcNAc(b1-3)Gal(b1-4)GlcNAc(b1-3)GalNAc
# Outline: as §1
# [31] = target: Gal(b1-4)GlcNAc(b1-3)Gal(b1-4)GlcNAc(b1-3)[Gal(b1-4)GlcNAc(b1-3)Gal(b1-4)GlcNAc(b1-6)]GalNAc
# Outline: as §1
# [32] = target: Gal(b1-4)GlcNAc(b1-3)Gal(b1-4)GlcNAc(b1-6)[Gal(b1-3)]GalNAc
# Outline: as §1
# [33] = target: Gal(b1-4)GlcNAc(b1-3)Gal(b1-4)[Fuc(a1-3)]GlcNAc(b1-3)Gal(b1-4)[Fuc(a1-3)]GlcNAc
# Outline: as §1
# [34] = target: Gal(b1-4)GlcNAc(b1-3)GalNAc
# Outline: as §1
# [35] = target: Gal(b1-4)GlcNAc(b1-3)[Fuc(a1-3)GlcNAc(b1-6)]Gal(b1-4)Glc
# Outline: as §1
# [36] = target: Gal(b1-4)GlcNAc(b1-3)[Gal(b1-4)GlcNAc(b1-6)]Gal(b1-4)GlcNAc
# Outline: as §1
# [37] = target: Gal(b1-4)GlcNAc(b1-3)[GlcNAc(b1-6)]Gal(b1-4)GlcNAc
# Outline: as §1
binder,measurement,setting,value
Epa23 (Candida glabrata) (protein) MGSSHHHHHHSSGLVPRGSHMIPNPFEGTINNFPSGCSPNHGLYNRGLTMELYNYSYIHPQSIQSYFNTSTLKKMEKGQCWDPSYLDVNYPRTGYKTHNRFAKVNGIDGILDFEFNPTRSCVPSKGQLPQNYNYPLQFTLSNFTMLLYGYFKPKVTAKHTFTIFADDLLFLNFGAGNAFDCCQQQDTIDDFGNYQAYALWGSDTQQNTLTVNLDANIYYPIRMFYNNRDFKGALNMYFTTDESNTKINDFSGYLFNIPDSSEGCPAHISYETECGNVSG,glycan array binding signal (z-score),[1],-0.223
same,glycan array binding signal (z-score),[2],-0.182
same,glycan array binding signal (z-score),[3],0.305
same,glycan array binding signal (z-score),[4],0.486
same,glycan array binding signal (z-score),[5],-0.021
same,glycan array binding signal (z-score),[6],0.186
same,glycan array binding signal (z-score),[7],0.12
same,glycan array binding signal (z-score),[8],0.405
same,glycan array binding signal (z-score),[9],-0.053
same,glycan array binding signal (z-score),[10],0.324
same,glycan array binding signal (z-score),[11],0.201
same,glycan array binding signal (z-score),[12],-0.008
same,glycan array binding signal (z-score),[13],0.903
same,glycan array binding signal (z-score),[14],0.139
same,glycan array binding signal (z-score),[15],0.484
same,glycan array binding signal (z-score),[16],1.71
same,glycan array binding signal (z-score),[17],0.915
same,glycan array binding signal (z-score),[18],2.44
same,glycan array binding signal (z-score),[19],0.357
same,glycan array binding signal (z-score),[20],1.31
same,glycan array binding signal (z-score),[21],1.98
same,glycan array binding signal (z-score),[22],3.33
same,glycan array binding signal (z-score),[23],2.62
same,glycan array binding signal (z-score),[24],2.19
same,glycan array binding signal (z-score),[25],3.79
same,glycan array binding signal (z-score),[26],3.01
same,glycan array binding signal (z-score),[27],2.83
same,glycan array binding signal (z-score),[28],4.71
same,glycan array binding signal (z-score),[29],1.82
same,glycan array binding signal (z-score),[30],0.173
same,glycan array binding signal (z-score),[31],0.183
same,glycan array binding signal (z-score),[32],0.162
same,glycan array binding signal (z-score),[33],0.209
same,glycan array binding signal (z-score),[34],-0.012
same,glycan array binding signal (z-score),[35],-0.036
same,glycan array binding signal (z-score),[36],0.015
same,glycan array binding signal (z-score),[37],0.611
